Data reported in patent US20240076343A1 (CEPHALON, published 2024).

T1: high-affinity hIL-2 receptor (IL-2Rαβγ) on NK-92 cells (human, UniProt P01589 22-272; P14784 27-551; P31785 23-369)
T1 sequence 1: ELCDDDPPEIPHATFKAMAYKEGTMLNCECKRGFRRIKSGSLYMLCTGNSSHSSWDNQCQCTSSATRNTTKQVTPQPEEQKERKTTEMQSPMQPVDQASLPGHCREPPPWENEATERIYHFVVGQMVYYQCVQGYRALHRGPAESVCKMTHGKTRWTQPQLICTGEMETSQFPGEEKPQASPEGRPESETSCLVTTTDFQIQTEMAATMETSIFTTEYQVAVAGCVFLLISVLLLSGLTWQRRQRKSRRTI
T1 sequence 2: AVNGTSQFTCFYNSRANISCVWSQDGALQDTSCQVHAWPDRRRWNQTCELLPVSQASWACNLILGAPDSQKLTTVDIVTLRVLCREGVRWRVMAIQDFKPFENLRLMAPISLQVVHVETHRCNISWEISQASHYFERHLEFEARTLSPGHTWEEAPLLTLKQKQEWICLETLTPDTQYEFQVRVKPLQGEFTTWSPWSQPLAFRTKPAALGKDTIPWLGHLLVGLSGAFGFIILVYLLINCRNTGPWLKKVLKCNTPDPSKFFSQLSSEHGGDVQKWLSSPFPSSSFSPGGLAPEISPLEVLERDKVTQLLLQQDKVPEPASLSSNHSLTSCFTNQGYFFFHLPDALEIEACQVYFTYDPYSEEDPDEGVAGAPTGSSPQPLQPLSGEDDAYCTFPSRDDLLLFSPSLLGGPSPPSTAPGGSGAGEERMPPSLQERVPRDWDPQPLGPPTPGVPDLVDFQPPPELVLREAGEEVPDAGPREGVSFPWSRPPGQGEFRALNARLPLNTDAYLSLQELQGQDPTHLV
T1 sequence 3: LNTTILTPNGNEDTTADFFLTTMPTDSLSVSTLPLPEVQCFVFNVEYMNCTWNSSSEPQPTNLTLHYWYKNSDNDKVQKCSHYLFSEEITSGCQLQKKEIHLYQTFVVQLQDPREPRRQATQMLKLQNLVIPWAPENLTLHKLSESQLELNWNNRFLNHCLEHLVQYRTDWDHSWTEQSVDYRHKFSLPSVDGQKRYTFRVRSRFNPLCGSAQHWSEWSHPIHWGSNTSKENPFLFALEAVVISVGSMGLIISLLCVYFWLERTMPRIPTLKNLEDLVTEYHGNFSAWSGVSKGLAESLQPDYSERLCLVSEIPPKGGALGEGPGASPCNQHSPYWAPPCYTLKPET

T2: intermediate-affinity hIL-2 receptor (IL-2Rβγ) on TF1+IL-2Rβ cells (human, UniProt P14784 27-551; P31785 23-369)
T2 sequence 1: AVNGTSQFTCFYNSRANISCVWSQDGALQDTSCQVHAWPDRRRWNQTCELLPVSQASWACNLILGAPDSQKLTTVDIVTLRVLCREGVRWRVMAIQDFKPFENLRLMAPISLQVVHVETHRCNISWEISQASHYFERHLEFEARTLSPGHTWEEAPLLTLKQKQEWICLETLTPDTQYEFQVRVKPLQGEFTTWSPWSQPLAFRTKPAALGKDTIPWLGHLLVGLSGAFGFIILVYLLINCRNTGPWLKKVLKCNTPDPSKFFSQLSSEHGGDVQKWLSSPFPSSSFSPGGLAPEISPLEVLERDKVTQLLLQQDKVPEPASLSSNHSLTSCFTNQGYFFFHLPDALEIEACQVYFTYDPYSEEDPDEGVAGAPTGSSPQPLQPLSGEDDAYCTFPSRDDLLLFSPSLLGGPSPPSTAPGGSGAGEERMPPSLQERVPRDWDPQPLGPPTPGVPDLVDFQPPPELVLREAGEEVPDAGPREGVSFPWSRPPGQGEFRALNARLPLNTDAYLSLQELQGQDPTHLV
T2 sequence 2: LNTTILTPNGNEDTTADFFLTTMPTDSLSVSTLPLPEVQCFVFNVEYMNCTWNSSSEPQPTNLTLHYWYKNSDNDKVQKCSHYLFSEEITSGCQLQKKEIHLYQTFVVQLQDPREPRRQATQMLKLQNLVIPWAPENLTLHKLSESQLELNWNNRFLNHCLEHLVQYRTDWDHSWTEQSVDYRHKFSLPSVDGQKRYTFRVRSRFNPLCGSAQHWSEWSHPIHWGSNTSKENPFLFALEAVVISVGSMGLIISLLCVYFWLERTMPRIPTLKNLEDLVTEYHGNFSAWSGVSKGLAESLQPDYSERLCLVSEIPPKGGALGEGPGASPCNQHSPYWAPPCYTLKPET

B1: 2H7-hIgG1-LAGA-df-hIL-2 (T3A/D20A/R38E/C125A) (other)
heavy: EVQLLESGGGLVQPGGSLRLSCAASGFTFKDYCMTWVRQAPGKGLEWVSAIVYSGGSTYYADSVKGRFTISRDNSKNTLYLQMNNLRAEDTAVYYCAKYTRASYFYDAMDVWGQGTTVTVSS[not shown - human IgG1 constant region with L235A G237A (EU numbers)]APASSSTKKTQLQLEHLLLALQMILNGINNYKNPKLTEMLTFKFYMPKKATELKHLQCLEEELKPLEEVLNLAQSKNFHLRPRDLISNINVIVLELKGSETTFMCEYADETATIVEFLNRWITFAQSIISTLT
light: EIVLTQSPGTLSLSPGERATLSCRASQSIGKSFLAWYQQKPGQAPRLLIYDASTRAADIPARFSGSGSGTDFTLTISSLEPEDFAVYYCQQYYDWPPLSFGGGTKVEIKRTVAAPSVFIFPPSDEQLKSGTASVVCLLNNFYPREAKVQWKVDNALQSGNSQESVTEQDSKDSTYSLSSTLTLSKADYEKHKVYACEVTHQGLSSPVTKSFNRGEC
notes: antibody-hIL-2 fusion; also called 2H7-hIgG1-LAGA-hIL-2 (T3A/D20A/R38E/C125A)
B2: 2H7-hIgG1-LAGA-df-hIL-2 (T3A/R38E/D84K/C125A) (other)
heavy: EVQLLESGGGLVQPGGSLRLSCAASGFTFKDYCMTWVRQAPGKGLEWVSAIVYSGGSTYYADSVKGRFTISRDNSKNTLYLQMNNLRAEDTAVYYCAKYTRASYFYDAMDVWGQGTTVTVSS[not shown - human IgG1 constant region with L235A G237A (EU numbers)]APASSSTKKTQLQLEHLLLDLQMILNGINNYKNPKLTEMLTFKFYMPKKATELKHLQCLEEELKPLEEVLNLAQSKNFHLRPRKLISNINVIVLELKGSETTFMCEYADETATIVEFLNRWITFAQSIISTLT
light: EIVLTQSPGTLSLSPGERATLSCRASQSIGKSFLAWYQQKPGQAPRLLIYDASTRAADIPARFSGSGSGTDFTLTISSLEPEDFAVYYCQQYYDWPPLSFGGGTKVEIKRTVAAPSVFIFPPSDEQLKSGTASVVCLLNNFYPREAKVQWKVDNALQSGNSQESVTEQDSKDSTYSLSSTLTLSKADYEKHKVYACEVTHQGLSSPVTKSFNRGEC
notes: antibody-hIL-2 fusion; also called 2H7-hIgG1-LAGA-hIL-2 (T3A/R38E/D84K/C125A)
B3: 2H7-hIgG4-LE-df-hIL-2 (T3A/D20A/R38E/C125A) (other)
heavy: EVQLLESGGGLVQPGGSLRLSCAASGFTFKDYCMTWVRQAPGKGLEWVSAIVYSGGSTYYADSVKGRFTISRDNSKNTLYLQMNNLRAEDTAVYYCAKYTRASYFYDAMDVWGQGTTVTVSSASTKGPSVFPLAPCSRSTSESTAALGCLVKDYFPEPVTVSWNSGALTSGVHTFPAVLQSSGLYSLSSVVTVPSSSLGTKTYTCNVDHKPSNTKVDKRV[not shown - human IgG4 Fc with changes]APASSSTKKTQLQLEHLLLALQMILNGINNYKNPKLTEMLTFKFYMPKKATELKHLQCLEEELKPLEEVLNLAQSKNFHLRPRDLISNINVIVLELKGSETTFMCEYADETATIVEFLNRWITFAQSIISTLT
light: EIVLTQSPGTLSLSPGERATLSCRASQSIGKSFLAWYQQKPGQAPRLLIYDASTRAADIPARFSGSGSGTDFTLTISSLEPEDFAVYYCQQYYDWPPLSFGGGTKVEIKRTVAAPSVFIFPPSDEQLKSGTASVVCLLNNFYPREAKVQWKVDNALQSGNSQESVTEQDSKDSTYSLSSTLTLSKADYEKHKVYACEVTHQGLSSPVTKSFNRGEC
notes: antibody-hIL-2 fusion; also called 2H7-hIgG4-LE-hIL-2 (T3A/D20A/R38E/C125A)

Assays:
[1] = molecular target: T3, recombinant His-tagged human PD-1 (Acro Biosystems) (human, UniProt Q15116 partial chain); test: SPR Carterra LSA;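 further: antibodies or fusion proteins amine-coupled on an HC30M chip, soluble His-tagged human or cynomolgus PD-1 titrated over them, non-regenerative kinetics, constants fitted from titration curves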
T3 construct: His-tagged; also called hPD-1
T3 sequence (Q15116 25-167 limits assumed): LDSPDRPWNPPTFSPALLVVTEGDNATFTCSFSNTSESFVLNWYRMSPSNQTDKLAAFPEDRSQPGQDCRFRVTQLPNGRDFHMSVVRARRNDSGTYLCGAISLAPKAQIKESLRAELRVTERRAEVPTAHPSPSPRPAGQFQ

[2] = molecular target: T4, recombinant His-tagged cynomolgus PD-1 (Acro Biosystems) (cynomolgus, UniProt B0LAJ3 25-170); test: SPR Carterra LSA;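 further: antibodies or fusion proteins amine-coupled on an HC30M chip, soluble His-tagged human or cynomolgus PD-1 titrated over them, non-regenerative kinetics, constants fitted from titration curves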
T4 construct: His-tagged; also called Cyno PD-1; not shown: His tag (and any linker) of the Acro Biosystems product
T4 sequence (B0LAJ3 entry or part of it limits assumed): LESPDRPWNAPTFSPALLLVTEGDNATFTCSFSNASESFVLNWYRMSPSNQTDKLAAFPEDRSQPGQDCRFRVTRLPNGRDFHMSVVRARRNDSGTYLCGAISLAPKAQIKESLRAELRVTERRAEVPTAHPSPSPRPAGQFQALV

[3] = molecular target: T1, high-affinity hIL-2 receptor (IL-2Rαβγ) …; test: cell-based or functional assay
[4] = molecular target: T2, intermediate-affinity hIL-2 receptor …; test: cell-based or functional assay
[5] = molecular target: T2, intermediate-affinity hIL-2 receptor …; test: cell-based or functional assay; remark: listed apart in the source

Row | Binder | Kd [1] | koff [1] | kon [1] | Kd [2] | koff [2] | kon [2] | Fold change from rhIL-2 (NK-92) [3] | Fold change from rhIL-2 (TF1 + IL-2Rβ) [4] | Fold decrease from rhIL-2 (TF1 + IL-2Rβ + hPD-1) [5]
1 | B1 | 5.4 nM | 0.00083 s⁻¹ | 150000 M⁻¹ s⁻¹ | 11 nM | 0.00097 s⁻¹ | 88000 M⁻¹ s⁻¹ | > 10000 fold | ~3430 fold | ~1 fold
2 | B2 | 6.2 nM | 0.00081 s⁻¹ | 130000 M⁻¹ s⁻¹ | 13 nM | 0.001 s⁻¹ | 76000 M⁻¹ s⁻¹ | – | – | ~1 fold
3 | B3 | 4.3 nM | 0.00081 s⁻¹ | 190000 M⁻¹ s⁻¹ | 11 nM | 0.001 s⁻¹ | 90000 M⁻¹ s⁻¹ | > 10000 fold | > 10000 fold | –
